The subject of test [1] is HSkMC (human skeletal muscle cells). Nature of the test: cytotoxicity call (relative viability < 0.9). As to conditions: 10 µM.
Test [2] concerns S. aureus RN4220. Briefly: growth inhibition call (relative growth <= 0.2). As to conditions: 50 µM.

This is one part of the list.

Regarding `C[C@H](CO)N1C[C@H](C)[C@@H](CN(C)Cc2ccncc2)Oc2cc(C#CCN(C)C)ccc2S1(=O)=O`, the cytotoxicity call in test [1] is “inactive”. Besides, in test [2], the growth inhibition call was “inactive”.

In the case of `C[C@@H]1CN([C@@H](C)CO)C(=O)c2cc(C3=CCCC3)cnc2O[C@H]1CN(C)C(=O)Nc1ccc(C(F)(F)F)cc1`, the cytotoxicity call in test [1] is “inactive”. The growth inhibition call in test [2] was “inactive”.

Consider `C[C@H](CO)N1C[C@H](C)[C@H](CN(C)Cc2ccc(C(=O)O)cc2)Oc2c(NC(=O)C3CCOCC3)cccc2C1=O`, for which the cytotoxicity call in test [1] was “inactive”. Besides, the growth inhibition call in test [2] was “inactive”.

With `Cc1cn([C@H]2C[C@H](F)[C@@H](CO)O2)c(=O)[nH]c1=O`, in test [1], the cytotoxicity call is “inactive”. Further, in test [2], the growth inhibition call was “inactive”.

Turning to `C[C@@H]1CCCCO[C@H](CN(C)C(=O)c2ccccc2)[C@@H](C)CN([C@H](C)CO)C(=O)c2cc(NC(=O)c3ccccc3)ccc2O1`, the cytotoxicity call in test [1] was “inactive”. The growth inhibition call in test [2] was “inactive”.

With `C[C@@H]1CCCCO[C@H](CN(C)CC2CCCCC2)[C@@H](C)CN([C@H](C)CO)C(=O)c2cc(NC(=O)CCC(F)(F)F)ccc2O1`, the cytotoxicity call in test [1] is “inactive”. Also, in test [2], the growth inhibition call was “inactive”.

Consider `CCc1nc2ccc(C(=O)Nc3cc(-c4ccccc4)ccc3OC)cn2c1N(CCN(C)C)CC1CC1`, for which, in test [1], the cytotoxicity call is “inactive”. For the same compound, the growth inhibition call in test [2] was “inactive”.

On to `Cc1cc(O)cc2c1O[C@](C)(CCC[C@H](C)CCC[C@H](C)CCCC(C)C)CC2`, for which the cytotoxicity call in test [1] was “inactive”. In addition, in test [2], the growth inhibition call is “inactive”.

`C[C@@H]1CCCCO[C@@H](CN(C)Cc2ccncc2)[C@@H](C)CN([C@@H](C)CO)C(=O)c2cc(NC(=O)Nc3ccc(C(F)(F)F)cc3)ccc2O1`: the cytotoxicity call in test [1] is “inactive”. Moreover, the growth inhibition call in test [2] was “inactive”.

Turning to `C[C@H]1CCCCO[C@@H](CN(C)S(=O)(=O)c2cccs2)[C@@H](C)CN([C@@H](C)CO)C(=O)c2cc(NS(=O)(=O)c3ccc(Cl)cc3)ccc2O1`, the cytotoxicity call in test [1] is “inactive”. Moreover, the growth inhibition call in test [2] was “inactive”.
